# Test results taken from PubChem BioAssay AID1460 (National Center for Advancing Translational Sciences (NCATS), 2008).
# Out of some 270,000 compounds screened, about 5,800 (2.1%) were called active. The inconclusive results got no clear call from the source; some entries with a clear call stand among them for comparison. Calls follow the shape of the dose curve; as a rule, active = well fitted inhibition curve with a large enough effect; inconclusive = small, poorly fitted or top-dose-only effect; inactive = flat fitted curve, though single readings scatter. Potencies beside an inconclusive call are fits to weak or partial responses and may not hold up.
# Target: Microtubule-associated protein tau (Homo sapiens) (UniProt P10636)
# UniProt P10636, sequence (P10636 whole entry, looked up): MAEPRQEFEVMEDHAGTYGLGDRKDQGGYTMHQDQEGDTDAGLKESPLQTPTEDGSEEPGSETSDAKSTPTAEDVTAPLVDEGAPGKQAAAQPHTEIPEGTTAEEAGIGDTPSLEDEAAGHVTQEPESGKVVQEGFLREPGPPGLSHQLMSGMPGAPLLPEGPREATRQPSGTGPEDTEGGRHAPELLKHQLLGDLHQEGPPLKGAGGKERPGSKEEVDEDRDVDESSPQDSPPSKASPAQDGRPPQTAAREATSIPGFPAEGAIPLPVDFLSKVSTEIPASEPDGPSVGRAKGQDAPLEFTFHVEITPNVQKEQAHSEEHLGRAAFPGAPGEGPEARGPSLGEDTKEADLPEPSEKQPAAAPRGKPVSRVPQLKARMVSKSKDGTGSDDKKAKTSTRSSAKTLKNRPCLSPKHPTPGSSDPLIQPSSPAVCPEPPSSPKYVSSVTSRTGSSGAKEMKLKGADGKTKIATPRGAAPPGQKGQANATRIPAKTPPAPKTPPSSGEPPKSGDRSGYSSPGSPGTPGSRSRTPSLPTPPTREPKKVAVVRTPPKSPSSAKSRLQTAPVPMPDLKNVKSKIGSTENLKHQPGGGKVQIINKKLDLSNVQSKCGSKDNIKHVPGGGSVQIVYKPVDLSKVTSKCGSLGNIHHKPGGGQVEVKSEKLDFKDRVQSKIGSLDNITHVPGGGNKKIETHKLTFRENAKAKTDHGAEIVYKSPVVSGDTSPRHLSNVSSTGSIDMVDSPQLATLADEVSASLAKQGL
# Assay: qHTS for Inhibitors of Tau Fibril Formation, Thioflavin T Binding; also: nearly all actives have a fitted effect of over 55% in size
# Settings: recombinant tau K18 P301L (four-repeat tau fragment), heparin-induced fibrillization, ThT fluorescence; series mostly up to 57.4 µM; activity, negative = inhibition: at the top concentration
# In short: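 Aggregation was driven by heparin (20 uM final) acting on recombinant tau […] bearing P301L in 100 mM sodium acetate pH 7; fibrils were detected with Thioflavin T.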
# % is scaled to controls: 0 for no effect and ±100 for the full control effect; potency is read from the fitted curve at half-maximal effect; tags tell the direction and shape of the fitted curve.
SMILES,"activity, negative = inhibition",Potency
Cn1c(SCC(=O)c2ccc(F)cc2)nnc1-c1cnccn1,inactive: -5.86%,–
O=C(ONc1ccc(N=NC(=O)c2ccccc2O)cc1)c1ccccc1,–,active: 4.47 µM
CCOc1ccc(-c2cc(C)n3nc(C(N)=O)cc3n2)cc1,–,"inconclusive: 39.8 µM [inhibitor, partial curve, poor fit]"
COC(=O)c1c(NC(=O)Cc2coc3cc(C)ccc23)sc2c1CCC2,–,"inconclusive: 31.6 µM [inhibitor, single point]"
O=C(NC(=S)Nc1ccccc1N1CCOCC1)c1ccco1,inactive: 2.31%,–
Cc1ccc(Cn2cc(S(=O)(=O)c3cccc(Cl)c3)c(=O)c3cc(F)c(N4CCCCC4)cc32)cc1,inactive: 3.55%,–
N#C/C(=C\c1ccc(O)c([N+](=O)[O-])c1)C(=O)NCc1ccccc1,–,active: 15.8 µM
Cc1cc(N2CCC(C)CC2)nc2ccc(NC(=O)Cc3c(F)cccc3Cl)cc12,–,"inconclusive: 0.0251 µM [inhibitor, full curve, poor fit]"
CCOc1ccc(C(=O)c2ccc(OC)c(O)c2O)cc1,–,active: 15.8 µM
CC1C(O)CC2C(C(=O)O)=CO[C@@H](O[C@H]3OC(CO)C(O)C(O)C3O)C21 (stereo partly specified),–,"inconclusive: 6.31 µM [inhibitor, single point]"
Oc1ccc(-c2csc(-c3c[nH]c4ccccc34)n2)c(O)c1,–,active: 6.31 µM
CCOC(=O)Cc1cc(-c2ccc(F)cc2)nc2ccc3ccccc3c12,inactive: 1.69%,–
O=C(C1CCCN(S(=O)(=O)c2cccc3nsnc23)C1)N1CCN(c2ccccc2)CC1 (stereo unspecified),–,"inconclusive: 25.1 µM [inhibitor, partial curve, poor fit]"
O=C1NCN(c2ccccc2)C12CCN(CCCC(c1ccc(F)cc1)c1ccc(F)cc1)CC2,–,"inconclusive: 25.1 µM [inhibitor, single point] [middle of 4 runs]"
COc1ccc(Cn2c(O)c(C=Nc3ccccc3C(=O)O)c3ccccc3c2=O)cc1,–,"inconclusive: 15.8 µM [inhibitor, partial curve]"
Cc1nc2ccccc2nc(=O)c1NNc1ccccc1,–,"inconclusive: 14.1 µM [inhibitor, partial curve]"
Oc1ccc2ccccc2c1N=Nc1ccccn1,–,active: 5.01 µM
CCOc1ccc(NC(=S)N(CCN2CCOCC2)Cc2ccc3c(c2)CCCN3CC)cc1,–,"inconclusive: 22.4 µM [inhibitor, partial curve]"
CCc1ccc(NC(=O)CN(c2ccc(Cl)cc2)S(=O)(=O)c2ccsc2C(=O)OC)cc1,inactive: 1.09%,–
CC1CC(CC(=O)NC(=S)Nc2ccccc2Cl)C(=O)O1 (stereo unspecified),inactive: -4.76%,–
CC(C)C1NC(C(=O)O)Cc2c1[nH]c1ccccc21 (stereo unspecified),–,"inconclusive: 44.7 µM [inhibitor, partial curve, poor fit]"
COc1ccc(N2CCN(C(=O)CCN3C(=O)c4ccccc4S3(=O)=O)CC2)cc1,–,"inconclusive: 0.501 µM [inhibitor, full curve, poor fit]"
CC1(C)O[C@H]2[C@@H](O1)[C@@H](C(=O)Nc1ccccc1C(F)(F)F)O[C@@H]1OC(C)(C)O[C@@H]12,inactive: 9.92%,–

SMILES,"activity, negative = inhibition",Potency
C/C(=N\Nc1nccnc1Cl)c1ccc([N+](=O)[O-])cc1,–,"inconclusive: 7.94 µM [inhibitor, partial curve]"
Cc1ccccc1CNC(=O)C(C)N(c1ccccc1)S(C)(=O)=O (stereo unspecified),inactive: 1.57%,–
CCCCN(CC)C(=O)c1nn(C)c2c1CSc1ccccc1-2,inactive: -7.46%,–
Cc1ccc(COc2ccccc2-c2cc(C(=O)N/N=C/c3cccnc3)[nH]n2)cc1,–,"inconclusive: 1.78 µM [inhibitor, partial curve, poor fit]"
Cc1cc(C)nc(NC(=O)CCC2CCCC2)c1,inactive: -3.45%,–
O=c1oc(-c2ccccc2F)nc2c1cnn2-c1ccccc1,–,"inconclusive: 10 µM [inhibitor, partial curve]"
CC(C)NC(=S)N/N=C/c1sc(N2CCCCC2)nc1-c1cccs1,inactive: -12.8%,–
Cc1ccc(C(C(=O)NC(C)(C)C)N(Cc2cccnc2)C(=O)C(=O)NC2CCCCC2)o1 (stereo unspecified),inactive: -13.3%,–
CCOc1ccccc1CNC(=O)c1ccc2c(c1)N(Cc1ccc(C)cc1)CCS2,–,"inconclusive: 35.5 µM [inhibitor, single point]"
Nc1cccc2c1C(=O)N(C(=O)/C=C/c1cccc(Br)c1)C2=O,–,active: 25.1 µM
O=C1CC(Sc2nnnn2C2CCCCC2)C(=O)N1c1ccccc1 (stereo unspecified),–,"inconclusive: 12.6 µM [inhibitor, partial curve]"
CN1C2CCC1/C(=C\c1ccccc1)C(=O)/C2=C\c1ccccc1,–,active: 15.8 µM
C(=N\Nc1nc2ccccc2s1)/c1cccs1,–,active: 14.1 µM
CC(C)NC(=O)c1sc2nc(-c3cccs3)cc(-c3cccs3)c2c1N,–,"inconclusive: 10 µM [inhibitor, full curve]"
COc1cc(/C=N/NC(=O)C(Cc2c[nH]c3ccccc23)NC(=O)OCc2ccccc2)cc([N+](=O)[O-])c1O (stereo unspecified),–,active: 12.6 µM
COc1ccc(NC2=CC(c3ccc(OC)cc3)N(c3ccc(OC)cc3)C2=O)cc1 (stereo unspecified),–,"inconclusive: 11.2 µM [inhibitor, partial curve]"
Cn1cnc([N+](=O)[O-])c1Nc1ccc(O)cc1,–,"inconclusive: 15.8 µM [inhibitor, partial curve]"
CCc1ccccc1NS(=O)(=O)c1ccc2c(c1)CC(=O)N2,inactive: -0.362%,–
Cc1ccc(S(=O)(=O)c2ccc(NN)cc2)cc1,–,"inconclusive: 25.1 µM [inhibitor, partial curve]"
COc1ccc(-c2cc(C(F)(F)F)n3nc(-c4ccccc4)cc3n2)cc1OC,–,"inconclusive: 15.8 µM [inhibitor, partial curve]"
CCc1ccc(NC(=O)Cn2c(=O)n(CCC(C)C)c(=O)c3cccnc32)cc1,–,"inconclusive: 22.4 µM [activator, single point]"
CCCCCCC1CCC(c2nc(-c3ccncc3)no2)CC1 (stereo unspecified),–,"inconclusive: 25.1 µM [inhibitor, partial curve]"
CCOC(=O)N1CCc2c(sc3c2C(=O)NC(c2cc(OC)c(OC)c(OC)c2)N3)C1 (stereo unspecified),–,active: 15.8 µM
